Data on 80 compounds can be found in ChEMBL document CHEMBL1201862, “PubChem BioAssay data set” (2004).

Values joined by “and” are separate entries in the source; they are usually repeats but may differ in a detail not shown here. Identical values can stand only once.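 These data come from cells grown in 96-well plates and exposed to compound for 48 hours at five concentrations. At the GI50, growth is halved.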 Active and inactive are the calls of the source. Rule as the data show it: active = GI50 up to about 1.1 µM and inactive = higher.

The subject of this assay is NCI-H322M. The assay is described as follows: NCI tumour cell line growth inhibition, 48 h.
On to `O=C1c2ccccc2-c2nc3ccncc3n21`, for which the GI50 is inactive: > 100 µM.

In the case of `CCCC(C)NC(=O)c1ccc(N(C)Cc2cnc3nc(N)nc(N)c3n2)cc1` (stereo not given), the GI50 is inactive: 24.3 µM.

As for `CN1CC(c2ccccc2)=CC2=C1C=CC(=N)/C2=N\N`, the GI50 was inactive: 4.73 µM.

Turning to `c1cc2c(c(NC3=NCCN3)c1)CCCC2`, the GI50 was inactive: > 100 µM.

For `Cc1c(-c2ccccc2)c(-c2ccc(OCCN(C)C)cc2)n2ccccc12`, the GI50 is inactive: 9.68 µM.

With `COc1ccc(C(=O)CC2=Nc3nnc(CCCCCCCc4nnc5n4C(=O)C(CC(=O)c4ccc(OC)cc4)=N5)n3C2=O)cc1`, the GI50 is inactive: > 100 µM.

`COC(=O)[C@H](Cc1c[nH]c2ccccc12)NC(=O)c1ccccc1I`: the GI50 is inactive: 16.4 µM.

`COc1cc(/C=C/C(=O)c2sc(-n3nc(-c4ccccc4)cc3-c3ccccc3)nc2C)ccc1O`: the GI50 is inactive: 72.3 µM.

As to `N#CC(c1ccccc1)(c1ccccc1)[C@@H](c1ccccc1)[C@H](Cc1ccccc1)NS(=O)(=O)c1ccccc1`, the GI50 is inactive: > 100 µM.

Regarding `CCOC(=O)C1(C(=O)OCC)CC=C(C)CC12C(=O)Nc1ccccc12` (stereo not given), the GI50 was inactive: > 100 µM.

Turning to `CCC1=C(c2ccc(OC)cc2)CC[C@]2(CCNC2=O)[C@@H]1C`, the GI50 was inactive: 82.2 µM.

For the compound `COc1cc2c(/C=C3/C(=O)Nc4ccccc43)c(Cl)n(Cc3ccc(Cl)cc3)c2cc1C`, the GI50 was active: 1.03 µM.

Regarding `CC1(C)CC2=NOS3=C2C(=NO3)C1c1ccccn1` (stereo not given), the GI50 is inactive: > 100 µM.

For the compound `O=C1[C@@H](O)[C@@H]2CCCC[C@@]23CCCN13`, the GI50 was inactive: > 100 µM.

Take `O=[N+]([O-])c1ccc(/C=N/n2c(S)nnc2CCc2nnc(S)n2/N=C/c2ccc([N+](=O)[O-])o2)o1`: the GI50 was inactive: 73.3 µM.

Regarding `COc1ccc(-c2ncnc(-c3ccc(OC)c(OC)c3)n2)cc1OC`, the GI50 is inactive: > 100 µM.

With `CCOC(=O)C1CCn2c(nc3c(=O)n(C)c(=O)n(C)c32)S1` (stereo not given), the GI50 was inactive: > 100 µM.

On to `COC(=O)[C@H](C)NC(=O)C1(CNC(=O)[C@H](C)NC(=O)OC(C)(C)C)Cc2ccccc2-c2ccccc2C1`, for which the GI50 is inactive: > 49.3 µM.

With `O=c1s[s+]([O-])c2ccccc12` (stereo not given), the GI50 was inactive: > 100 µM.

For the compound `CN(C)C(c1ccccc1)C1COC2Cc3ccccc3C1O2` (stereo not given), the GI50 was inactive: > 100 µM.

Regarding `CCCCn1c2c(n(CCCC)c1=S)-c1c(n(CCCC)c(=S)n1CCCC)SSSS2`, the GI50 was inactive: > 67.9 µM.

With `CC1=NN(c2ccccc2)C(=O)/C1=C\c1ccc([N+](=O)[O-])cc1`, the GI50 is inactive: 26.7 µM.

With `CC(=O)OC1(C)C(=O)OC/C2=C/CN(C)CCC(OC(=O)C(O)(C(C)Cl)CC1C)C2=O.c1ccccc1` (stereo not given), the GI50 is inactive: > 100 µM.

On to `CCOC(=O)C12C3CCC1C2C(=O)C3` (stereo not given), for which the GI50 was inactive: > 100 µM.

Take `O=c1ccn([C@@H]2C=C(CO)[C@@H](O)[C@H]2O)c(=O)[nH]1`: the GI50 was inactive: > 625 µM.

As for `CC(=O)Nc1ccc(C(=O)N2N=C(C)/C(=C/c3ccccc3O)C2=O)cc1`, the GI50 is inactive: 37.5 µM.

Turning to `O=C1NC2(CN3CCC2CC3)C(=O)N1CN(Cc1ccccc1)c1ccccc1` (stereo not given), the GI50 is inactive: > 100 µM.

Regarding `O=c1[nH]c2ccc(Cl)cc2c2oc(-c3ccccc3)nc12`, the GI50 is inactive: 22.3 µM.

In the case of `C=C1CCC2(C(C)=O)COC1(C)O2` (stereo not given), the GI50 was inactive: > 100 µM.

For the compound `O=c1cc(-c2ccccc2)[nH]c2cccc(S)c12`, the GI50 was inactive: 18.1 µM.

Consider `CCOC(=O)CCC(C(=O)OCC)n1nnc2cc(Nc3c(C)[n+]([O-])c4cc(F)c(OCC)cc4[n+]3[O-])ccc21` (stereo not given), for which the GI50 was inactive: > 100 µM.

As to `COc1ccc(C=O)cc1Oc1ccc(C[C@H]2c3c(cc(OC)c4c3Oc3cc5c(cc3O4)CCN(C)C5=O)CCN2C)cc1`, the GI50 is inactive: 8.34 µM.

Take `CCOC(=O)C1=C(C)N(NC(=O)c2ccccc2)C2(O)CCCC12C(=O)OCC` (stereo not given): the GI50 is inactive: > 100 µM.

With `CC(=O)C(CN1CCOCC1)C(c1ccccc1)c1c(O)c2ccccc2oc1=O` (stereo not given), the GI50 is inactive: > 100 µM.

On to `CSc1nc(SC)c2ncn(C3CC(Oc4ccc(C)cc4)C(COc4ccc(C)cc4)O3)c2n1` (stereo not given), for which the GI50 is inactive: > 100 µM.

Consider `C(=C\c1cccc(/C=C/c2ccccn2)n1)/c1ccccn1`, for which the GI50 is inactive: > 100 µM.

With `c1ccc2/c3[nH]/c(c2c1)=N\c1ccc(cc1)-c1nc2ccc(cc2o1)/N=c1/[nH]/c(c2ccccc12)=N/c1ccc2nc(oc2c1)-c1ccc(cc1)\N=3`, the GI50 was inactive: 28.8 µM.

On to `Oc1ccc(O)c(-n2cccn2)c1-n1cccn1`, for which the GI50 is inactive: > 100 µM.

Take `CC(=O)OCC1OC(n2c(Br)nc3c2c(=O)n(C)c(=O)n3C)C(OC(C)=O)C1OC(C)=O` (stereo not given): the GI50 is inactive: 42.1 µM.

Take `O=c1cc(/N=N/c2ccc(O)cc2)[nH]c(=O)[nH]1`: the GI50 is inactive: 85.3 µM.

As to `CC12CCC(=O)N1[C@@H](c1ccccc1)[C@@H](c1ccccc1)O2` (stereo not given in full), the GI50 was inactive: > 100 µM.

In the case of `O=C(COc1ccc(OCC(=O)N2C(=O)CN(c3ccc(Cl)cc3)C2=S)cc1)N1C(=O)CN(c2ccc(Cl)cc2)C1=S`, the GI50 is inactive: 28.1 µM.

For `O=c1[nH]c2ccc(C(F)(F)F)cc2nc1C(F)(F)F`, the GI50 is inactive: 26.2 µM.

In the case of `Cc1cc(S(=O)(=O)[N-]C(=C(C#N)C#N)[n+]2ccc(N(C)C)cc2)c(SCC(=O)O)cc1Cl`, the GI50 is inactive: 94.8 µM.

As for `Oc1ccc(SCc2cc(O)ccc2O)cc1`, the GI50 was inactive: 31.7 µM.

For `CCOc1ccc(NC(=O)C2=C(C)NC(C)=C(C(=O)Nc3ccc(OCC)cc3)C2c2ccc(O)c(OC)c2)cc1`, the GI50 is inactive: 59.4 µM.

As for `Cc1ccc(NC(=O)CCCC(=O)CC(=O)c2ccc(Br)cc2)cc1`, the GI50 was inactive: > 100 µM.

`COC(=O)c1c(C)cccc1/C=C1\Cc2ccc(C)c(C)c2C1=O`: the GI50 is inactive: > 100 µM.

As to `Cn1c(N)nc(=O)c2c1N(C1OC(CO)C(O)C1O)CN2Cc1ccccc1` (stereo not given), the GI50 was inactive: > 100 µM.

Take `O=C(/C=C/c1ccccc1)CCc1c(O)c2ccccc2oc1=O`: the GI50 is inactive: > 100 µM.

For `COC(=O)CCCCCOS(=O)(=O)c1ccc(C)cc1`, the GI50 was inactive: > 10 µM.

As for `C=CCc1ccc(Oc2cc(CC=C)c3c(c2O)O[C@@H](CO)[C@H]3c2ccc(O)c(-c3cc(CC=C)ccc3O)c2)cc1`, the GI50 is inactive: 59.3 µM.

On to `CCOP(=O)(OCC)/C(=C\N1C(=O)CC(=O)NC1=S)C(=O)OC`, for which the GI50 was inactive: > 100 µM.

For the compound `CCCC(Sc1ccccc1)P(=O)(c1ccccc1)c1ccccc1` (stereo not given), the GI50 was inactive: 55.7 µM.

In the case of `COc1ccc(-c2nc3ncccn3c2-c2ccc(S(C)(=O)=O)cc2)cc1`, the GI50 is inactive: 39.4 µM.

On to `CC1CN(C(=O)CN2CCC(CCCCN(C)C)CC2)c2ccccc2NC1=O` (stereo not given), for which the GI50 was inactive: > 100 µM.

Take `CC(=O)OCCn1c(Cc2ccc([N+](=O)[O-])cc2)nn(C(C)=O)c1=O`: the GI50 is inactive: > 100 µM.

For `CN(C)CCNC(=O)c1cccc2c(Nc3ccc(S(=O)(=O)N=C(N)N)cc3)c3ccccc3nc12`, the GI50 was inactive: 22 µM.

In the case of `CN(C)c1ccc(C2CC(=O)CC(c3ccc(N(C)C)cc3)C23C(=O)NC(=S)NC3=O)cc1` (stereo not given), the GI50 is inactive: > 100 µM.

`COc1ccc(O)cc1C=O`: the GI50 is inactive: > 100 µM.

For `Cc1cc([N+](=O)[O-])ccc1Sc1c2ccccc2nc2ccccc12`, the GI50 was inactive: > 100 µM.

Turning to `Oc1ccc(N=C2CCC(=C(c3ccccc3)c3ccc(Nc4ccc(O)cc4)cc3)CC2)cc1`, the GI50 is inactive: 61.7 µM.

Take `CC(=O)c1cccc(Nc2c3ccccc3nc3occc23)c1`: the GI50 was inactive: 35 µM.

Consider `C/C=C(/C)C(=O)O[C@H]1C(C)=C[C@]23C(=O)[C@@H](C=C(COC(C)=O)[C@@H](O)[C@]12O)[C@H]1[C@@H](C[C@H]3C)[C@@]1(C)OC(=O)/C(C)=C\C`, for which the GI50 was inactive: 3.07 µM.

Regarding `COc1ccc(OC)c(/C=C/[N+](=O)[O-])c1`, the GI50 was inactive: 5.7 µM and inactive: 3.35 µM.

Take `CSCCCNC(=O)c1csc([C@@H](CSC)NC(=O)CCNC(=O)[C@@H](NC(=O)OCC(Br)(Br)Br)C(C)O)n1` (stereo not given in full): the GI50 was inactive: > 100 µM.

For `COc1cc2c(cc1OC)C(Cc1c3ccccc3cc3ccccc13)N(C)CC2` (stereo not given), the GI50 is inactive: 20.9 µM.

`Cc1cc(S(=O)(=O)Nc2nc(Nc3ccccc3)n[nH]2)c(SSc2cc(Cl)c(C)cc2S(=O)(=O)Nc2nc(Nc3ccccc3)n[nH]2)cc1Cl`: the GI50 was inactive: > 100 µM.

As to `CCOC(=O)N1CC2(C(=O)OC)C=CC1C(C(=O)OC)C2` (stereo not given), the GI50 was inactive: > 100 µM.

In the case of `COC(=O)C(Cc1ccccc1)NP(=O)(O)OCC1OC(n2cc(I)c(=O)[nH]c2=O)CC1O` (stereo not given), the GI50 is inactive: > 100 µM.

In the case of `OCCCCn1cc(Cn2ncc3c(SCc4ccccc4)ncnc32)nn1`, the GI50 is inactive: > 100 µM.

Turning to `COc1ccc(OC)c2c(Nc3ccc(S(=O)(=O)O)c4cc(S(=O)(=O)O)cc(S(=O)(=O)O)c34)cc(C)nc12`, the GI50 was inactive: > 100 µM.

As to `O=S(=O)(O)CCCc1cccc2ccccc12`, the GI50 was inactive: > 100 µM.

On to `CC(C)(C)OC(=O)NC(CO)c1cccc(OCc2ccccc2)c1` (stereo not given), for which the GI50 was inactive: > 100 µM.

For `CC1(C)C2CCC13CS(=O)(=O)N1O[C@]13C(=O)O2` (stereo not given in full), the GI50 is inactive: > 100 µM.

Turning to `CC/C=C\C/C=C\C/C=C\CCCCCCCC(=O)OCC(O)CO` (stereo not given), the GI50 was inactive: > 67.8 µM.

In the case of `Clc1ncnc2c1nc(C#Cc1ccccc1)n2Cc1ccccc1`, the GI50 is inactive: 14.7 µM.

With `Cc1ccc2[nH]c3c(C)c4ccncc4c(C)c3c2c1`, the GI50 is active: 0.59 µM.

On to `CCC1(c2ccccc2)Sc2ccccc2-n2cccc2C1=O` (stereo not given), for which the GI50 is inactive: > 10 µM.

`CCOC(=O)C1(C#N)C(=O)c2cc[n+](CC[n+]3ccc4c(c3)C(=O)C(C#N)(C(=O)OCC)C4=O)cc2C1=O` (stereo not given): the GI50 is inactive: > 100 µM.
